Measured values as given in patent publication US20250214977A1, “STAT6 INHIBITORS AND USES THEREOF” (Kymera Therapeutics, Inc., priority 2024, published 2025).

Biological target: T1, biotinylated truncated STAT6 (123-632)-avi (Homo sapiens, UniProt P42226)
T1 sequence (P42226 123-632 limits assumed): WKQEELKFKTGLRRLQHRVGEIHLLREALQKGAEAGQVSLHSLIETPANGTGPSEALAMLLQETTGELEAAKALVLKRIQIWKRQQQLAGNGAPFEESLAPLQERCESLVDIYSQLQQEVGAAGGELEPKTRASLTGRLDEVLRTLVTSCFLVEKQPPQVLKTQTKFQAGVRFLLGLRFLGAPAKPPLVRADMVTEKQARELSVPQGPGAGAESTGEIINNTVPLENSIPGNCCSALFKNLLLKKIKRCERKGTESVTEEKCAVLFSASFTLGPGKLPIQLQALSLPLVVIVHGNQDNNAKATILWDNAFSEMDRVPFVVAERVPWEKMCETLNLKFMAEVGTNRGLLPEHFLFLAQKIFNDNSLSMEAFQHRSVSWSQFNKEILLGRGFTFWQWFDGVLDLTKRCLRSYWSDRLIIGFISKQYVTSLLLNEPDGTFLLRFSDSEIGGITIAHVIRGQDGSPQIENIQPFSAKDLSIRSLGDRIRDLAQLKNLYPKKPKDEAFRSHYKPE
Experiment: Homogenous Time-Resolved Fluorescence (HTRF) binding assay
Details: 0.15 nM biotinylated truncated STAT6 (123-632)-avi, 20 nM fluorescein-labeled probe

Row | Structure (SMILES) | IC50 (30 minutes at room temperature) | IC50 (30 minutes room temperature)
1 | COc1cc(F)cnc1N1CCN(C(=O)c2cc3c(-c4cnn(Cc5ccccc5)c4)cc(C4=CCCN(C(=O)CCn5ccnn5)C4)c(F)c3[nH]2)CC1 [Example I-1115] | < 100 nM | –
2 | C[C@@H]1CCCCN1C(=O)c1cc2ccc(C3=CCCN(C(=O)CCn4ccnn4)C3)cc2[nH]1 (single isomer, unassigned) [Example I-130] | 10000 to 100000 nM | –
3 | CN(C)C(=O)c1cc2ccc(C3=CCCN(C(=O)CNC(=O)c4cccc(C(F)(F)F)c4)C3)cc2[nH]1 [Example I-101] | 10000 to 100000 nM | –
4 | COc1cc(-c2cc(C3=CCCN(C(=O)CCn4ccnn4)C3)cc3cc(C(=O)N(C)C)oc23)cc(OC)c1OC [Example I-1088] | < 100 nM | –
5 | CCc1cnccc1-c1cc(C2=CCCN(C(C)=O)C2)c(F)c2[nH]c(C(=O)N3Cc4cnn(C)c4C3)cc12 [Example I-705] | 10000 to 100000 nM | –
6 | CN(C)C(=O)c1cc2cc(C3=CCCN(C(=O)CCc4ncns4)C3)ccc2o1 [Example I-165] | 10000 to 100000 nM | –
7 | COc1cc(F)cnc1N1CCN(C(=O)c2cc3c(-c4cnccc4C(C)C)cc(C4=CCCN(C(=O)CCn5cccn5)C4)c(F)c3[nH]2)CC1 [Example I-669] | < 100 nM | –
8 | COc1cccnc1N1CCN(C(=O)c2cc3c(-c4ccc5ccccc5c4OC)cc(C4=CCCN(C(=O)CCn5ccnn5)C4)c(F)c3[nH]2)CC1 [Example I-396] | < 100 nM | –
9 | COc1ccccc1-c1cc(C2=CCCN(C(=O)CCn3ccnn3)C2)c(F)c2[nH]c(C(=O)N3CCN(c4cc5cn[nH]c(=O)c5cn4)CC3)cc12 [Example I-1438] | – | < 100 nM
10 | COc1cc(F)cnc1N1CCN(C(=O)c2cc3c(C4=CCCC4)cc(C4=CCCN(C(=O)CCn5ccnn5)C4)c(F)c3[nH]2)CC1 [Example I-1134] | < 100 nM | –
11 | COc1cccc(Cl)c1-c1cc(C2=CCCN(C(=O)CCn3ccnn3)C2)cc2[nH]c(C(=O)N(C)C)cc12 [Example I-1671] | – | < 100 nM
12 | COC(=O)C1CCC(c2ccc3oc(C(=O)N(C)C)cc3c2)CN1C(=O)CCn1ccnn1 (stereo not shown) [Example I-149] | 10000 to 100000 nM | –
13 | CN(C)C(=O)c1cc2ccc(C3=CCCN(C(=O)c4cccnc4-c4ccc(F)c(F)c4)C3)cc2[nH]1 [Example I-137] | 10000 to 100000 nM | –
14 | COc1ccccc1-c1cc(C2=CCCN(C(=O)CCn3ccnn3)C2)c(F)c2[nH]c(C(=O)N(C)C)cc12 [Example I-1669] | – | < 100 nM
15 | COc1ccccc1-c1cc(C2=CCCN(C(=O)CCn3ccnn3)C2)c(F)c2[nH]c(C(=O)N3CCC(c4ccccc4)C3)cc12 (stereo not shown) [Example I-1530] | – | < 100 nM
16 | COc1ccccc1-c1cc(C2=CCCN(C(=O)CCn3ccnn3)C2)c(F)c2[nH]c(C(=O)N3CCN(c4nc(C)cs4)CC3)cc12 [Example I-1024] | < 100 nM | –
17 | COc1ccncc1-c1cc(C2=CCCN(C(=O)CCn3ccnn3)C2)c(F)c2[nH]c(C(=O)N(C)C)cc12 [Example I-1065] | < 100 nM | –
18 | COc1ccccc1-c1cc(C2=CCCN(C(=O)CCn3ccnn3)C2)c(F)c2[nH]c(C(=O)N3CCCC(C#N)C3)cc12 (stereo not shown) [Example I-1546] | – | < 100 nM
19 | CN(C[C@H](O)COc1cccc2ccccc12)C(=O)c1cc2ccc(C3=CCCN(C(=O)CCn4ccnn4)C3)c(F)c2[nH]1 [Example I-1633] | – | 1000 to 10000 nM
20 | COc1ccc(Cl)cc1-c1cc(C2=CCCN(C(=O)CCn3ccnn3)C2)cc2[nH]c(C(=O)N(C)C)cc12 [Example I-1058] | < 100 nM | –

Row | Structure (SMILES) | IC50 (30 minutes at room temperature) | IC50 (30 minutes room temperature)
21 | CN(C)C(=O)c1nc2ccc(C3=CCCN(C(=O)CCn4ccnn4)C3)cc2s1 [Example I-227] | 100 to 1000 nM | –
22 | CCc1nc(C)ccc1-c1cc(C2=CCCN(C(=O)CCn3ccnn3)C2)c(F)c2[nH]c(C(=O)N3CCN(c4ncc(F)cc4OC)CC3)cc12 [Example I-735] | < 100 nM | –
23 | CN(C)C(=O)c1cc2ccc([C@H]3CCCN(C(=O)CCn4ccnn4)C3)cc2[nH]1 [Example I-1189] | 100 to 1000 nM | –
24 | CN(C)C(=O)c1cc2cc(C3=CCCN(C(=O)C4Cc5c(cccc5-n5cccn5)CN4C=O)C3)ccc2o1 (stereo not shown) [Example I-172] | 1000 to 10000 nM | –
25 | CN(C)C(=O)c1cc2ccc(C3=CCCN(C(=O)C(O)Cc4ccccc4)C3)cc2[nH]1 (stereo not shown) [Example I-51] | 10000 to 100000 nM | –
26 | COc1ccccc1-c1cc(C2=CCCN(C(=O)CCn3ccnn3)C2)c(F)c2[nH]c(C(=O)N3CCN(c4c(F)cccc4OC)CC3)cc12 [Example I-367] | < 100 nM | –
27 | CNCc1cccc2c1CC(C(=O)N1CCC=C(c3ccc4oc(C(=O)N(C)C)cc4c3)C1)N(C=O)C2 (stereo not shown) [Example I-148] | 10000 to 100000 nM | –
28 | CN(C)C(=O)c1cn2cc(C3=CCCN(C(=O)CCn4ccnn4)C3)ccc2n1 [Example I-241] | 1000 to 10000 nM | –
29 | COc1ccncc1-c1cc(C2=CCCN(C(=O)CCn3ccnn3)C2)c(F)c2[nH]c(C(=O)N3CCN(c4ncc(C5CC5)cc4OC)CC3)cc12 [Example I-438] | < 100 nM | –
30 | CN(C)C(=O)c1cc2cc(C3=CCCN(C(=O)CCc4ncccn4)C3)ccc2o1 [Example I-231] | 10000 to 100000 nM | –
31 | COCc1cccc(NC(=O)c2cc3c(-c4ccccc4OC)cc(C4=CCCN(C(=O)CCn5ccnn5)C4)c(F)c3[nH]2)c1 [Example I-1028] | 1000 to 10000 nM | –
32 | COc1ccccc1-c1cc(C2=CCCN(C(=O)CCn3ccnn3)C2)c(F)c2[nH]c(C(=O)N3CCN(Cc4ncn(C)c4C)CC3)cc12 [Example I-1371] | – | < 100 nM
33 | COc1ccccc1-c1cc(C2=CCCN(C(=O)CCn3ccnn3)C2)c(F)c2[nH]c(C(=O)N3CCC(OC4CCC4)CC3)cc12 [Example I-984] | < 100 nM | –
34 | COc1ccccc1-c1cc(C2=CCCN(C(=O)CCn3ccnn3)C2)c(F)c2[nH]c(C(=O)N3CCN(c4ccccn4)C(=O)C3)cc12 [Example I-1008] | < 100 nM | –
35 | C[C@@H](C(=O)N1CCC=C(c2ccc3cc(C(=O)N(C)C)[nH]c3c2)C1)n1ccccc1=O [Example I-834] | 100 to 1000 nM | –
36 | CN(C)C(=O)c1cc2ccc(C3=CCCN(C(=O)CCn4ccc(C(N)=O)n4)C3)c(F)c2[nH]1 [Example I-1332] | – | < 100 nM
37 | COc1cc(F)cnc1N1CCN(C(=O)c2cc3c(C4=CCOCC4)cc(C4=CCCN(C(=O)CCn5ccnn5)C4)c(F)c3[nH]2)CC1 [Example I-1156] | < 100 nM | –
38 | CN(C)C(=O)c1cc2ccc(C3=CCCN(C(=O)C4CC4F)C3)cc2[nH]1 (stereo not shown) [Example I-25] | > 100000 nM | –
39 | COc1ccccc1-c1cc(C2=CCCN(C(=O)CCn3ccnn3)C2)c(F)c2[nH]c(C(=O)N3CCCN(CCO)CC3)cc12 [Example I-1411] | – | 100 to 1000 nM
40 | COc1ccccc1-c1cc(C2=CCCN(C(=O)CCn3ccnn3)C2)c(F)c2[nH]c(C(=O)NC(CO)c3ccccc3Cl)cc12 (stereo not shown) [Example I-1410] | – | 100 to 1000 nM

Row | Structure (SMILES) | IC50 (30 minutes at room temperature) | IC50 (30 minutes room temperature)
41 | CN(C)C(=O)c1cn2c(F)c(C3=CCCN(C(=O)CCn4ccnn4)C3)ccc2n1 [Example I-1656] | – | 100 to 1000 nM
42 | COc1ccncc1-c1cc(C2=CCCN(C(=O)CCn3ccnn3)C2)c(F)c2[nH]c(C(=O)N3CCN(c4cccc(F)c4OC)CC3)cc12 [Example I-563] | < 100 nM | –
43 | CN(C)C(=O)c1cc2ccc(C3=CCCN(C(=O)C4NCCc5ccccc54)C3)cc2[nH]1 (stereo not shown) [Example I-60] | 10000 to 100000 nM | –
44 | COc1ccncc1-c1cc(C2=CCCN(C(C)=O)C2)c(F)c2sc(C(=O)N(C)C)cc12 [Example I-555] | 100 to 1000 nM | –
45 | CNS(=O)(=O)c1cccc(C(=O)N2CCC=C(c3ccc4cc(C(=O)N(C)C)[nH]c4c3)C2)c1 [Example I-70] | 10000 to 100000 nM | –
46 | O=C(CCn1ccnn1)N1CCC=C(c2cc(-c3ccccc3OC3CC3)c3cc(C(=O)N4CCN(c5ncccc5OC5CC5)CC4)[nH]c3c2F)C1 [Example I-477] | < 100 nM | –
47 | COc1ccccc1N1CCN(C(=O)c2cc3c(-c4cc(F)cc(F)c4OC)cc(C4=CCCN(C(=O)CCn5ccnn5)C4)c(F)c3[nH]2)CC1 [Example I-601] | < 100 nM | –
48 | CN(C)C(=O)c1nc2ccc(C3=CCCN(C(=O)C4Cc5ccccc5CN4C=O)C3)cc2[nH]1 (stereo not shown) [Example I-198] | 1000 to 10000 nM | –
49 | COc1cccc(N2CCN(C(=O)c3cc4c(-c5ccc(F)cc5OC)cc(C5=CCCN(C(=O)CCn6ccnn6)C5)c(F)c4[nH]3)CC2)n1 [Example I-589] | < 100 nM | –
50 | CN(C)C(=O)c1cc2ccc(C3=CCCN(C(=O)CCc4nn[nH]n4)C3)cc2[nH]1 [Example I-15] | 10000 to 100000 nM | –
51 | CCCc1cc(C2=CCCN(C(=O)CCn3ccnn3)C2)c(F)c2[nH]c(C(=O)N3CCN(c4ncc(F)cc4OC)CC3)cc12 [Example I-693] | > 100000 nM | –
52 | Cc1ccc(C#N)cc1-c1cc(C2=CCCN(C(=O)CCn3ccnn3)C2)cc2cc(C(=O)N(C)C)oc12 [Example I-1079] | < 100 nM | –
53 | COc1ccccc1-c1cc(C2=CCCN(C(=O)C3Cc4ccccc4CN3C=O)C2)cc2cc(C(=O)N(C)C)oc12 (stereo not shown) [Example I-838] | < 100 nM | –
54 | COc1ccccc1-c1cc(C2=CCCN(C(=O)CCn3ccnn3)C2)c(F)c2[nH]c(C(=O)N3CCN(c4cc5cnn(C)c5cc4C)CC3)cc12 [Example I-925] | 100 to 1000 nM | –
55 | CN(C)C(=O)c1cc2ccc(C3=CCCN(C(=O)C45CC(C(F)(F)F)(C4)C5)C3)cc2[nH]1 [Example I-55] | 1000 to 10000 nM | –
56 | COc1cc(F)cnc1N1CCN(C(=O)c2cc3c(-c4ccc(NC5CCCC5)cc4)cc(C4=CCCN(C(=O)CCn5ccnn5)C4)c(F)c3[nH]2)CC1 [Example I-1124] | 100 to 1000 nM | –
57 | CCc1nc(C)ccc1-c1cc(C(=O)N2Cc3cnn(CC)c3C2)cc2c(F)c(C3=CCCN(C(C)=O)C3)n(CC3CC3)c12 [Example I-1218] | < 100 nM | –
58 | COc1ccccc1-c1cc(C2=CCCN(C(C)=O)C2)c(F)c2cc(C(=O)N(C)C)oc12 [Example I-1104] | 100 to 1000 nM | –
